Measurements as given in article PMC4336329 (PLoS ONE, 2015).
Hit rate of the full screen: of about 310,000 compounds, about 2,200 (0.71%) showed an effect of 50% or more. The effect is printed as a negative number. The list shows a part of the results.

molecular target: human ether-à-go-go-related gene (hERG) potassium channel (human, UniProt Q12809); experiment: primary screen, population patch clamp on CHO cells stably expressing hERG
Sequence (Q12809 whole entry, looked up): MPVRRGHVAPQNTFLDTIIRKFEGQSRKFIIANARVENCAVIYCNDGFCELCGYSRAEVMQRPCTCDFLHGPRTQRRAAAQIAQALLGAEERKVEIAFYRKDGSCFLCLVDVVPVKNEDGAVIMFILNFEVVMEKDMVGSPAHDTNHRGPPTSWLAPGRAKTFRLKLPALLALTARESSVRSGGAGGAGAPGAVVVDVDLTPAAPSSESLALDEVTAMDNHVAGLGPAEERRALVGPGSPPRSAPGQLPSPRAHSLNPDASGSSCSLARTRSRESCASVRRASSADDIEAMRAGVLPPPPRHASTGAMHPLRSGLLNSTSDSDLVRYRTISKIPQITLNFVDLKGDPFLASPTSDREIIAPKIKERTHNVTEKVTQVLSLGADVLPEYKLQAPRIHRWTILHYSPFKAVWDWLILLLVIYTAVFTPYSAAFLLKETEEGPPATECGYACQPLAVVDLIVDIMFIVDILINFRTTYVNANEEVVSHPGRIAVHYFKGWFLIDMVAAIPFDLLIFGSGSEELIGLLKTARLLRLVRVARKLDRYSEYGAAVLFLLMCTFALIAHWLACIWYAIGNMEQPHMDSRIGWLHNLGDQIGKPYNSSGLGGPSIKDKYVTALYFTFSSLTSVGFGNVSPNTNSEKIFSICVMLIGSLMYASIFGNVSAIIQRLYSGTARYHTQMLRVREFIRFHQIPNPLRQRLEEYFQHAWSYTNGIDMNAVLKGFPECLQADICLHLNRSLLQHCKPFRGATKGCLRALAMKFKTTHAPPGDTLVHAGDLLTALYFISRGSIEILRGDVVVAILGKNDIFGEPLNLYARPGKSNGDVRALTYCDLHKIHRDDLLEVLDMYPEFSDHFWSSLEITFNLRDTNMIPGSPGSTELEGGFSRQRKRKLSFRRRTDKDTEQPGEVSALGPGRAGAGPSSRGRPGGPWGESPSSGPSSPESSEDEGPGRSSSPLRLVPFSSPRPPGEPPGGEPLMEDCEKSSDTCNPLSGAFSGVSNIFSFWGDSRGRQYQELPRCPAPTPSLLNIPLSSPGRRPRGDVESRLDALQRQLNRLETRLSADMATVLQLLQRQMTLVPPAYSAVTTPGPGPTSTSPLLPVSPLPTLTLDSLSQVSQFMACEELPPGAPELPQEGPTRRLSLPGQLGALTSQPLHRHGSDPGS

| Structure (SMILES) | hERG current change (%, negative = inhibition) at 1uM |
| --- | --- |
| CC1(C)C=C2[C@H]3CC[C@@H]4[C@@]5(C)CCC(=O)C(C)(C)[C@@H]5CC[C@@]4(C)[C@]3(C)CC[C@@]2(C(=O)O)CC1 | 13.4% |
| O=C(Nc1ccnn1C1CCN(CCCc2ccccc2)CC1)c1ccccc1 | -70.9% |
| CS/C(=C\[N+](=O)[O-])Nc1ccc(OC(F)(F)F)cc1 | 8.9% |
| CCOc1ccc(N(CC(=O)N2CC=C(c3ccccc3)CC2)S(=O)(=O)c2c(C)noc2C)cc1 | 1.27% |
| CCOc1nc(C)ccc1-c1noc(-c2ccco2)n1 | 14.6% |
| Cc1ccc(C)c(S(=O)(=O)Nc2ccc(S(=O)(=O)Nc3ncccn3)cc2)c1 | 7.95% |
| CCOC(=O)c1c(C)[nH]c(C(=O)OCC(=O)N(C)C2CCS(=O)(=O)C2)c1C (stereo not shown) | 14.7% |
| CC1=C(C(=O)Nc2ccccc2)C(c2ccc3c(c2)OCO3)C2=C(CCCC2=O)N1 (stereo not shown) | 2.37% |
| COC(=O)c1ccc(Oc2coc3cc(OCc4ccc([N+](=O)[O-])cc4)ccc3c2=O)cc1 | 17.4% |
| COc1ccc(-c2cc(C)nc3nc(N)nn23)cc1 | 8.6% |
| O=C(Nc1ccc(S(=O)(=O)N2CCCCC2c2cccnc2)cc1)c1c(F)cccc1F (stereo not shown) | -0.692% |
| COc1ccc(CCC(=O)Nc2nnc(C(C)(C)C)s2)cc1 | 18.1% |
| CC1CCC(=C(C#N)c2nc(-c3cc4ccccc4oc3=O)cs2)CC1 (stereo not shown) | 11% |
| CN1CC[n+]2cnc3ccccc3c21.[I-] | 6.59% |
| COc1ccc(C2c3[nH]c4ccccc4c3C[C@H]3C(=O)N(c4ccccc4C(=O)N4CCC(C(=O)O)CC4)C(=O)N23)cc1 (stereo partly shown) | 6.39% |
| Cc1ccc(C(=O)O/N=C(\N)Cc2cccs2)c(Cl)c1 | 10.5% |
| CCn1c(C)nc2cc(C(=O)NNS(=O)(=O)c3ccccc3F)ccc21 | 9.14% |
| O=C1COc2ccccc2CN1 | 1.27% |
| CSCCNC(=O)c1cccc(Cl)c1 | 7.13% |
| Cc1sc2nc(CN3CCOCC3)nc(Cl)c2c1C | 9.31% |
| Cc1ccc(N2CC(C(=O)Nc3nnc(C(C)C)s3)CC2=O)cc1 (stereo not shown) | -1.03% |
| CCN(CC)C(=O)c1ccc(N(Cc2ccccc2)S(C)(=O)=O)cc1 | 8.58% |

| Structure (SMILES) | hERG current change (%, negative = inhibition) at 1uM |
| --- | --- |
| O=C(c1ccc(Br)o1)N1CCN(CCc2ccncc2)CC1 | -22.4% |
| Cc1c(N=NC2=C(O)CCCC2=O)c(=O)n(-c2ccccc2)n1C | 10.9% |
| COC(=O)C1=C(CSc2nncn2C)NC(=O)NC1c1cc(C)ccc1C (stereo not shown) | 1.2% |
| CCN(CC)CC(O)CCCCCCCCC(=O)OC.Cl (stereo not shown) | 10.6% |
| CC(Sc1nnc(-c2ccco2)n1-c1ccccc1)C(=O)NCC1CCCO1 (stereo not shown) | 4.72% |
| O=C(Nc1ccc(Cl)cc1)N1CCCN(Cc2ccccc2F)C1 | 3.95% |
| CCOC(=O)Cc1nnc(NC(=O)C(CC)Sc2nc(C)cc(=O)[nH]2)s1 (stereo not shown) | 7.24% |
| O=C(COc1cc(O)c2c(=O)cc(-c3ccccc3)oc2c1)c1ccc(F)cc1 | 19.9% |
| N#Cc1c(-c2cccc(Br)c2)cc(-c2ccco2)[nH]c1=O | 14.1% |
| CC(C)(C)C(=O)Nc1ccc(S(=O)(=O)Nc2nccs2)cc1 | 2.17% |
| NC(=O)[C@@H]1CC2(CC(c3cccc(NC(=O)CC(c4ccccc4)c4ccccc4)c3)=NO2)CN1C(=O)COc1ccc(Cl)cc1 (stereo partly shown) | 13.4% |
| COc1ccccc1N1CCN(C(=O)C2CCC(Cn3c(=S)[nH]c4ccccc4c3=O)CC2)CC1 (stereo not shown) | 14.3% |
| COc1cccc(Cn2nnc(C(=O)NCCc3ccc(Cl)cc3)c2N)c1 | 10.3% |
| Nn1c(SCC(=O)Nc2ccc3c(c2)OCO3)nnc1C1CC1 | 12.4% |
| O=C(Cc1n[nH]c(=O)c2ccccc12)OCC(=O)c1ccc2c(c1)OCCO2 | 8.37% |
| CCCCCC(=O)Nc1ccc(C(=O)COC(=O)Cn2cnc3c2c(=O)n(C)c(=O)n3C)cc1 | 20.8% |
| Cc1sc(NC(=O)c2ccco2)c(CN2CCN(Cc3ccccc3)CC2)c1C | 1.36% |
| Cn1c(N)c(C(=O)c2ccc(C#N)cc2)c(=O)n(C)c1=O | 19.6% |
| Cc1occc1C(=O)Nc1cccc(Cl)c1Cl | -4.2% |
| CC(c1nc2ccccc2o1)N1C(=O)c2ccccc2C1=O (stereo not shown) | 5.67% |
| O=C(NC(=S)Nc1ccccc1N1CCOCC1)c1ccc(-c2cc(Cl)ccc2Cl)o1 | 3.19% |
| COc1ccc(CN(C)S(=O)(=O)c2nnc(NC(=O)c3ccccc3)s2)cc1OC | 12.8% |

| Structure (SMILES) | hERG current change (%, negative = inhibition) at 1uM |
| --- | --- |
| Nc1n[nH]c(N)c1N=Nc1ccc(F)cc1 | 18.5% |
| CC(C)(C)CN1CCN(CC#Cc2ccccc2)CC1CCO (stereo not shown) | 6.12% |
| O=C(C1=C(O)C(=O)N(CCN2CCOCC2)C1c1cccs1)c1cc2ccccc2o1 (stereo not shown) | 10.9% |
| O=C(Cn1ccc2cc(S(=O)(=O)N3CCCC3)ccc21)NCCc1ccccc1 | 8.33% |
| CN(C)S(=O)(=O)c1cccc(C(=O)Nc2ccc3c(c2)CCC3)c1 | -7.72% |
| O=C(Cc1ccsc1)Nc1cc(F)ccc1F | 15.8% |
| CCOC(=O)COc1ccc(/C=C2/SC(=Nc3ccccc3)N(Cc3cccnc3)C2=O)cc1OC | 8.74% |
| COc1ccc(CNC(=O)C(=O)NCC2OCCN2S(=O)(=O)c2ccc(OC)cc2)cc1 (stereo not shown) | 6.85% |
| COc1cc2[nH]c(=S)nc(NCCc3ccc(S(N)(=O)=O)cc3)c2cc1OC | 17.2% |
| COc1ccc(/C=N/NC(=O)c2ccc[nH]2)cc1 | 14.9% |
| Cc1ccccc1S(=O)Cc1ccc(C(=O)NCCCN2CCCCC2)o1 (stereo not shown) | 15% |
| CCCCN(CC)CCNC(=O)C1c2cc(OC)c(OC)cc2C(=O)N2CCc3ccccc3C12 (stereo not shown) | 3.99% |
| CC(C)(C)c1ccc(C(=O)NCC(=O)OCC(=O)Nc2nc(-c3ccc(F)cc3)cs2)cc1 | 11.3% |
| COc1ccc(/C=C/CN2CCN(CCc3ccccc3)C(CCO)C2)cc1 (stereo not shown) | -61.7% |
| Cc1ccccc1NC(=O)CSc1nc(COc2ccccc2)nc2ccccc12 | 15.1% |
| Cc1cc(C)c(C(=O)/C=C/c2ccco2)c(=O)[nH]1 | 1.67% |
| CC(=O)c1nc(N2C(=O)CC(Cc3cc(C)cc(C)c3)C2=O)sc1C (stereo not shown) | -0.0235% |
| O=C(CSc1nnc2c(n1)[nH]c1ccc(F)cc12)Nc1ccccc1F | 16% |
| C=CCn1c(-c2c(C)nc3cc(C)ccn23)n[nH]c1=S | 4.71% |
| Cc1cccc2c1cnn2C(=O)CCC(=O)NC1CCCCC1 | 10.5% |
| Cc1cc([N+](=O)[O-])ccc1NC(=O)c1csc(C)c1C | 11% |
| Cc1ncc(C[n+]2csc(CCOC(=O)CC3C4CC5CC(C4)CC3C5)c2C)c(N)n1.Cl.[Cl-] (stereo not shown) | -1.19% |

| Structure (SMILES) | hERG current change (%, negative = inhibition) at 1uM |
| --- | --- |
| O=C(c1ccc(N2CCOCC2)cc1)N1CCCC(Nc2ccccc2)C1 (stereo not shown) | 10.7% |
| O=C(NCc1ccc(Cl)cc1)C1CCN(S(=O)(=O)c2cccc3nonc23)CC1 | 8.68% |
| CC(=O)Nc1nnc(SCC(=O)N2C(C)CCCC2C)s1 (stereo not shown) | 13.1% |
| N#CC1=C(N)Oc2cc(O)c(Cl)cc2C1c1cccnc1 (stereo not shown) | 0.0661% |
| CCc1ccc(CCC(=O)Nc2sc(C)c(C)c2C(=O)OC)o1 | 6.99% |
| CCN(CC)C(=O)C(=O)Nc1ccc(OC)c(Cl)c1 | 10.3% |
| CC(=O)Nc1ccc(S(=O)(=O)NC2(C(F)(F)F)C(=O)NC(C)=C2C#N)cc1 (stereo not shown) | 10.4% |
| O=c1oc2ccccc2c(O)c1C=NCc1ccccn1 | 3.75% |
| Cc1ccc(NC(=O)Cn2nnc(C(=O)NCc3ccco3)c2N)c(C)c1 | 10.7% |
| Cc1ccc(S(=O)(=O)NC(CC(C)C)C(=O)N2CCC(C)CC2)cc1 (stereo not shown) | 8.25% |
| Clc1cccc(Cl)c1C1N2CCCN12 (stereo not shown) | 11.2% |
| Cl.O=C(CCCN1CCc2[nH]c3ccc(F)cc3c2C1)c1ccc(F)cc1 | -28.9% |
| CC(C)(C)NC(=O)/C=C/c1cccs1 | 17.1% |
| S=C(NCCc1ccccc1)Nc1ccc(Br)cc1 | 9% |
| CCOc1ccc(S(=O)(=O)N/N=C2/CCCC(=O)C2)cc1 | 6.43% |
| CCCCCCC(=O)OCC(=O)c1ccc2c(c1)NC(=O)CO2 | 15% |
| Cc1c(NC(=O)CSc2nnc3c4ccccc4n(CCc4ccccc4)c3n2)c(=O)n(-c2ccccc2)n1C | 7.75% |
| CC(C)Nc1nc(Cl)nc(Nc2ccccc2)n1 | 8.51% |
| Cn1cc(CCNC(=O)CC2C(=O)NCCN2CC(c2ccccc2)c2ccccc2)cn1 (stereo not shown) | 11.4% |
| COc1ccc(N2CCN(c3n[nH]c(N)n3)CC2)cc1 | 10.1% |
| C/C(=N\NC(=O)c1cccc(S(=O)(=O)N2CCCC2)c1)c1cccs1 | 5.16% |
| CSc1cccc(NC(=S)N(CCCN2CCCC2)Cc2cccn2Cc2ccc(Cl)cc2)c1 | 6.94% |
